Data: PubChem BioAssay AID686978 (National Center for Advancing Translational Sciences (NCATS), 2013)
Values joined by “and” are separate entries in the source; they are usually repeats but may differ in a detail not shown here. Identical values can stand only once. Screen size: about 420,000 compounds; about 64,000 (15%) were called active. The inconclusive results got no clear call from the source; some entries with a clear call stand among them for comparison. Calls come from the whole dose curve; as a rule, active = well fitted inhibition curve with a large enough effect; inconclusive = small, poorly fitted or top-dose-only effect; inactive = flat fitted curve, though single readings scatter. A potency beside an inconclusive call is a rough fit, not a confirmed value.

experiment: qHTS for Inhibitors of human tyrosyl-DNA phosphodiesterase 1 (TDP1): qHTS in cells in absence of CPT; conditions: DT40 Tdp1-/- hTDP1 cells, no CPT, ATP luminescence, 48 h; activity change, negative = growth inhibition: at 46.2 µM (top of the series) unless noted; note: nearly all actives have a fitted effect of over 55% in size
Method in brief: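 Readout: luminescence from CellTiter-Glo after 30 min in the dark at RT. Cells: DT40 Tdp1-/- with stable hTDP1, 400/well. Exposure: compounds alone, ≥48 hr, 37 °C.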
% is set by controls: 0 for no effect and ±100 for the full control effect; potency is the fitted concentration of half-maximal effect; tags give direction and shape of the fitted curve.

SMILES	Potency	activity change, negative = growth inhibition
Cc1ccc(S(=O)(=O)NCC2CCC(C(=O)NCCCN3CCC(C)CC3)CC2)cc1 (stereo not drawn)	inconclusive: 20.6 µM [inhibitor, single point]	
CC(C)c1ccc(C2Sc3ccccc3NC3=C2C(=O)c2ccccc23)cc1 (stereo not drawn)	active: 16.4 µM	
Cc1ccc(C)c(CSc2nnc(-c3ccccn3)n2N)c1	inconclusive: 20.6 µM [inhibitor, partial curve]	
CC(C)C(=O)N1CCN(c2ccccc2NC(=S)NC(=O)c2cccs2)CC1	inconclusive: 16.4 µM [inhibitor, single point]	
CCOc1ccc(CNC(=O)C2CC(=O)N(C3CCCC3)C2)cc1OC (stereo not drawn)	inconclusive: 2.06 µM [inhibitor, partial curve, poor fit]	
COc1ccc(C(C)(O)c2nc(-c3ccncc3)cs2)cc1 (stereo not drawn)	active: 5.8 µM	
CCOc1ccc(-c2nnc(-c3cccnc3)o2)cc1OCC	active: 16.4 µM	
Cc1[nH]c2ccc(F)cc2c1CCN(Cc1cccnc1)C(=S)NC(C)(C)C	inconclusive: 9.2 µM [inhibitor, partial curve]	
Cc1ccc2c(c1)cc1c(=O)n(Cc3cccc(Cl)c3)nc(C)n12	inconclusive: 29.1 µM [inhibitor, single point]	
Cc1cc(C)c2c(c1)NC(=O)C2(O)c1c[nH]c2ccccc12 (stereo not drawn)	inactive	
COc1ccc(OC)c(NC(=O)c2cc(S(=O)(=O)N(C)C)ccc2N2CCCC2)c1	inactive	
CC1=CC(C)[C@@H]2COC(c3ccc(O)cc3)[C@H]1C2C (stereo partly drawn)	inconclusive: 18.4 µM [inhibitor, single point]	
CCN(CC(=O)NCc1ccc(F)cc1)CC(=O)Nc1ccccc1-c1ccccc1	inconclusive: 14.6 µM [inhibitor, partial curve]	
CC1(C)CC(=O)C2=C(C1)OC(N)=C(C#N)C2c1cc2c(cc1[N+](=O)[O-])OCO2 (stereo not drawn)	inconclusive: 23.1 µM [inhibitor, partial curve]	
O=C(NC1CCSC1=O)C1CC(=O)N(c2ccc(F)cc2)C1 (stereo not drawn)	inactive	
O=C(CSC1=NCCS1)Nc1nc(-c2ccccc2)cs1	inactive	
COC(=O)[C@@]12C[C@@H](CC(=O)NCC34CC5CC(CC(C5)C3)C4)C(=O)N(Cc3ccco3)C1=CCC(C)(C)C2	active: 14.6 µM	
O=C(NCc1ccc2c(c1)OCO2)c1ccc2c(c1)N(Cc1c(F)cccc1Cl)C(=O)CS2	active: 23.1 µM	
CCCc1nnc(SCC(=O)Nc2cccc(C(F)(F)F)c2)o1	inactive	
COc1ccc(CCNC(=O)Cc2c(C)c3cc4c(C(C)(C)C)coc4c(C)c3oc2=O)cc1OC	active: 8.2 µM	
O=C(N(c1ccccn1)c1ccccn1)C12CC3CC(CC(C3)C1)C2	inactive	
CC(O)(c1ccc(F)c(F)c1)c1nc(-c2csc3ccccc23)cs1 (stereo not drawn)	inconclusive: 32.6 µM [inhibitor, single point]	
CCn1c(=O)n(CC)c2cc(S(N)(=O)=O)c(C)cc21	inactive	
Cc1c(NC(=O)Oc2ccccc2)sc(=S)n1C	inconclusive: 29.1 µM [inhibitor, single point]	
COC(=O)C1=C(C)N(Cc2ccccc2)C(=NCc2cccc(Cl)c2)N[C@H]1c1ccccc1	active: 20.6 µM	

SMILES	Potency	activity change, negative = growth inhibition
CC1CCCC(NC(=O)c2ccc3c(c2)OCCO3)C1C (stereo not drawn)	inconclusive: 16.4 µM [inhibitor, partial curve]	
Cc1cnc(N)nc1-c1ccccc1	inactive	
COc1cc(C=NNC(=O)c2ccccc2-n2cccc2)ccc1O	inconclusive: 25.9 µM [inhibitor, single point]	
O=C(COc1ccccc1F)Nc1ccccc1C(=O)OCc1cc(=O)n2nc(C3CC3)sc2n1	inactive	
COc1ccc(-c2nc3c(c(SCC(=O)Nc4cccc(O)c4)n2)Cc2c(CO)cnc(C)c2O3)cc1	active: 18.4 µM	
Cc1nc(CNC(=O)c2cc(COc3ccc(F)cc3Cl)on2)cs1	inconclusive: 14.6 µM [inhibitor, partial curve, poor fit]	
C[C@]12CC[C@H](O)CC1=CCC1C2CC[C@@]2(C)C1CC[C@@H]2NC(=O)[C@@H](N)Cc1ccccc1 (stereo partly drawn)	active: 20.6 µM	
CC(Sc1nnc(C(F)(F)F)n1C)C(=O)Nc1ccc(S(N)(=O)=O)cc1 (stereo not drawn)	inactive	
Cc1noc(C)c1COC(=O)c1cc(C)n(-c2ccccc2)c1C	active: 20.6 µM	
C/C=C(\C)C(=O)NCCN1C2=NC[C@@H](Cc3ccccc3)N2C[C@@H]1Cc1ccc(OC)cc1	inactive	
Cc1ccc(C(=O)N(Cc2ccco2)Cc2sccc2C)cc1	active: 23.1 µM	
CCN(CCNC(=O)C1CCN(Cc2nc(-c3ccc(Cl)cc3)oc2C)CC1)c1ccccc1	active: 18.4 µM	
CC(C)CCN1CCN(Cc2ccc(C(F)(F)F)cc2)CC1CCO (stereo not drawn)		inconclusive: -35.1% [inhibitor]
COc1ccc(NC(=O)COc2cc(C)cc(C)c2)cc1S(=O)(=O)N1CCCCC1	active: 8.2 µM	
CC(=O)c1ccc(N2CCN(C(=O)c3ccc(Cl)c(S(=O)(=O)NC4CC4)c3)CC2)c(F)c1	inconclusive: 29.1 µM [inhibitor, partial curve]	
Cc1ccc2[nH]c3c(c2c1)CCCC3NC(=O)CCl (stereo not drawn)	active: 2.31 µM	
Cn1c2ccccc2c2ncn(Cc3ccc(F)cc3)c(=O)c21	inconclusive: 29.1 µM [inhibitor, single point]	
CCc1ccccc1NC(=O)Cn1c(=O)n(Cc2ccco2)c(=O)c2ccccc21	inactive	
COc1ccc(C)cc1NC(=O)CN1c2cccc3cccc(c23)S1(=O)=O	inconclusive: 20.6 µM [inhibitor, single point]	
COC(=O)c1cccc(CN2C(=O)C(C)Sc3cc(Cl)ccc32)c1 (stereo not drawn)	inconclusive: 29.1 µM [inhibitor, single point]	
Cc1ccc(O)c(CNc2nc3ccccc3[nH]2)c1	inconclusive: 29.1 µM [inhibitor, single point]	
COc1ccc(CC(=O)N(CCC2=CCCCC2)c2c(N)n(Cc3ccccc3)c(=O)[nH]c2=O)cc1	inconclusive: 5.17 µM [inhibitor, partial curve, poor fit]	
CC(=O)c1ccc(O)c(CC=C(C)C)c1O	inconclusive: 20.6 µM [inhibitor, single point]	
COc1ccc(N2CCN(C(=O)c3ccc(S(=O)(=O)N4CCCCCC4)cc3)CC2)cc1		inconclusive: -31.9% [inhibitor]
O=C(CSc1nnnn1C1CCCCC1)Nc1ccc(F)cc1	inconclusive: 16.4 µM [inhibitor, single point]	

SMILES	Potency	activity change, negative = growth inhibition
COc1ccc2c(c1)OCC(Cc1ccc(OC)c(OC)c1)C2O (stereo not drawn)	inconclusive: 10.3 µM [inhibitor, partial curve] and inconclusive: 11.6 µM [inhibitor, partial curve, poor fit]	
COc1ccc(/C=C/C(=O)OCC(=O)N2CC(=O)Nc3ccccc32)cc1S(=O)(=O)N1CCOCC1	inconclusive: 18.4 µM [inhibitor, single point]	
CCc1ccc(CN(C(=O)c2ccco2)C2CCS(=O)(=O)C2)cc1 (stereo not drawn)		inconclusive: -30.1% [inhibitor]
CCc1ccc(NC(=O)C2CCN(c3nn4cc(-c5ccc(OC)cc5)nc4s3)CC2)cc1		inconclusive: -33.1% [inhibitor]
Fc1ccc(Br)cc1C1C=C(c2ccc(Br)s2)Nc2ncnn21 (stereo not drawn)	active: 0.651 µM	
Cc1ccccc1Nc1ncnc2c1cnn2Cc1ccccc1	inconclusive: 23.1 µM [inhibitor, partial curve]	
c1ccc(-c2nc[nH]c2-c2ccccc2)cc1	inconclusive: 29.9 µM [inhibitor, single point]	
Cc1ccc(N2C(=O)CC(c3ccccc3F)C3=C2COC3=O)cc1Cl (stereo not drawn)	inactive	
CC1=NN(c2cccc(Cl)c2)C(=O)C12CC(C)=C(C)CS2 (stereo not drawn)	inactive	
Cc1cccc(/N=C/c2ccccn2)n1	inactive	
COc1ccc(C)cc1-n1nnnc1SCc1nc2ccccc2s1	inconclusive: 11.6 µM [inhibitor, partial curve]	
CCCNC(=O)C1(C)CCN(Cc2cc(C)n(C)n2)C1 (stereo not drawn)	inactive	
O=C(CSc1nnc(-c2cccs2)n1-c1ccccc1)NCC1CCCO1 (stereo not drawn)	inactive	
Cc1cc(C(=O)N2CCN(c3ccc([N+](=O)[O-])cc3)CC2)co1	inconclusive: 20.6 µM [inhibitor, partial curve]	
CCN(CC)C(=O)Cn1c(=O)n(-c2ccc(Cl)c(Cl)c2)c(=O)c2c(C)c(C(=O)N(CC)CC)sc21	inactive	
Cn1c(=O)c(C(=O)CN2CCCCCC2)c(N)n(Cc2ccccc2)c1=O	inactive	
COc1cc(C(=O)NCC2(N(C)C)CCCCC2)ccc1OCc1ccccc1	inconclusive: 29.1 µM [inhibitor, single point]	
CC(C)=CCOc1c2ccoc2c(OCC=C(C)C)c2oc(=O)ccc12	inconclusive: 25.9 µM [inhibitor, single point]	
Cc1ccc(NC(=O)Nc2cccc(Cl)c2)c(C(=O)O)c1	inconclusive: 20.6 µM [inhibitor, single point]	
Cc1cccc(S(=O)(=O)Nc2cccc(-c3ccc(N4CCCCC4)nn3)c2)c1	inconclusive: 18.4 µM [inhibitor, single point]	
CCCCCCCNC(=O)C1(CC2CC(c3ccc(Cl)cc3)=NO2)CCN(C(=O)C2(C)CC2)CC1 (stereo not drawn)	active: 16.4 µM	
CC(/C=C/C=C/c1ccccc1)=N\NC(=O)c1cccnc1	inconclusive: 23.1 µM [inhibitor, single point]	
COc1cc(S(=O)(=O)NC2CCCC2)ccc1F	inactive	
